Experimental data as given in article PMC4933444.
Results are given in words; binding and its absence hold for the method and conditions named. For some assays here: In cells and extracts the contact can be indirect. Some binding calls cover weakened binding; strength is not graded here. For some assays here: Where a sequence is shown, tags or fusion partners need not be part of it. Values belong to the substance of their own block, whether it stands above or below them.

Protein sequences, listed by entry. Tags and fused reporters are not part of them.
UniProt Q00987: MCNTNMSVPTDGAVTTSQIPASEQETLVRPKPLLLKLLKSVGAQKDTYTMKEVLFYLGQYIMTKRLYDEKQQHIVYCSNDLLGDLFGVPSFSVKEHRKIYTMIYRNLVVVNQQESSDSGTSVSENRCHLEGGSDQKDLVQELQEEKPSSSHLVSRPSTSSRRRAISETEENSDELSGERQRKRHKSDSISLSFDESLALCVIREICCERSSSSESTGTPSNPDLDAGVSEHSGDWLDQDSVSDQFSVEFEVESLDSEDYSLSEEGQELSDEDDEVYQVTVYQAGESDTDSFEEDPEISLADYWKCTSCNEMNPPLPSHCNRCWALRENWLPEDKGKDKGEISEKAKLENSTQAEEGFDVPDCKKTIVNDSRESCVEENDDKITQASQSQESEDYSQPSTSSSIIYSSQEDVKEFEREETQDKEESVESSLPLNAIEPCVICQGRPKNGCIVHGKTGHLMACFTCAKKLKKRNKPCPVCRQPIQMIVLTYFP
UniProt Q9NQB0: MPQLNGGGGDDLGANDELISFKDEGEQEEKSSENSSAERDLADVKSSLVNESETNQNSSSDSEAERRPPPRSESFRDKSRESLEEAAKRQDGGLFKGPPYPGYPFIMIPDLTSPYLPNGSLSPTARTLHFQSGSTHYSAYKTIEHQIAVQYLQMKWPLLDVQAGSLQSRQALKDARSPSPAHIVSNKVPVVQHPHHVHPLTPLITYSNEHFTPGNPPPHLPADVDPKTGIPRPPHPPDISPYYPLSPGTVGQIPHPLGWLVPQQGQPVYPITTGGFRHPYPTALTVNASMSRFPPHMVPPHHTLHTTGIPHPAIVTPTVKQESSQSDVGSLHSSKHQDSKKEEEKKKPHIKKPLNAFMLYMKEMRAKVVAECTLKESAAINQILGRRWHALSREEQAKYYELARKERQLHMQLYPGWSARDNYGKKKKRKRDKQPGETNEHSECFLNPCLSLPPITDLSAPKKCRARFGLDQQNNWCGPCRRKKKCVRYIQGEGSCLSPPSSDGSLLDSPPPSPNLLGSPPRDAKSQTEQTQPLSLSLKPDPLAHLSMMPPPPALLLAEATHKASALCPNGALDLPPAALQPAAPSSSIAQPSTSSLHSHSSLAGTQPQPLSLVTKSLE

Columns and labels:
[1] = target: T1, high-mobility group box-containing protein 1 (HBP1), endogenous (human (endogenous in A549 and WI-38)) (UniProt O60381); assay: co-IP; endogenous proteins, A549 whole cell lysates in IP lysis buffer (25 mM Tris-HCl pH 7.4, 150 mM NaCl, 1% Nonidet P-40, 1 mM EDTA, 5% glycerol); IP with anti-p53 (9282), anti-HBP1 or anti-Mdm2 and protein A-Sepharose overnight at 4 °C, Western blot; in Fig. 4B (right) cells with pLL3.7 or shHBP1, IP with anti-p53
T1 sequence: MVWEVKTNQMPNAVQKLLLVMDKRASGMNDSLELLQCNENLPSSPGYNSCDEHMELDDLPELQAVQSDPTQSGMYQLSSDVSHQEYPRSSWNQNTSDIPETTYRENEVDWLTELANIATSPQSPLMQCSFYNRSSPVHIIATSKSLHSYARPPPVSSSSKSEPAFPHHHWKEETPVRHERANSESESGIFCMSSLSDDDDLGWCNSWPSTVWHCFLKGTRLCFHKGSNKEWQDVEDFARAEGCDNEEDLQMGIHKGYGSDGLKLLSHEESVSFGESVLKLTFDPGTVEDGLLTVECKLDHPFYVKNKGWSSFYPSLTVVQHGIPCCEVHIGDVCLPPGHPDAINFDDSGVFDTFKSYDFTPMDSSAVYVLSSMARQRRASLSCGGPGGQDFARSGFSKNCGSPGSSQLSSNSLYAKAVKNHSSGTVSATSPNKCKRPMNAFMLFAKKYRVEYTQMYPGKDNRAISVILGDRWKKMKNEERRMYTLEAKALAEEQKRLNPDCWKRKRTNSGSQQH

[2] = target: T1, high-mobility group box-containing protein 1 (HBP1), endogenous (human (endogenous in A549 and WI-38)); assay: co-IP; endogenous proteins, WI-38 cells (young and senescent) lysed with IP lysis buffer; IP with anti-HBP1, Western blot with anti-Mdm2 and anti-TCF4
[3] = target: T2, HA-tagged HBP1 (UniProt O60381); assay: co-IP; H1299 cells cotransfected with HA-HBP1 and FLAG-p53 or FLAG-Mdm2, lysed 24 h after transfection in IP lysis buffer; IP with anti-HA or anti-FLAG, Western blot with anti-FLAG or anti-HA
T2 sequence: T1 sequence

[4] = target: T3, GST-HBP1 (N-terminal GST-tagged, full-length HBP1) (UniProt O60381); assay: pull-down; GST pull-down: purified GST or GST-tagged proteins on glutathione-Sepharose beads overnight at 4 °C, His-tagged proteins added for 4 h at 4 °C, washed three times, eluted, Western blot; both purified
T3 sequence: T1 sequence

binding [1]: binds
Substance: p53, endogenous (from UniProt P04637 1-393)

binding [1]: binds
binding [2]: binds
Substance: Mdm2, endogenous (from UniProt Q00987 1-491)

binding [3]: binds
Substance: FLAG-tagged p53 (from UniProt P04637 1-393)

binding [4]: binds
Substance: His-Mdm2 (from UniProt Q00987 1-491)

binding [4]: binds
Substance: His-p53 (from UniProt P04637 1-393)

binding [3]: binds
Substance: FLAG-tagged Mdm2 (from UniProt Q00987 1-491)

binding [2]: binds
Substance: TCF4, endogenous (from UniProt Q9NQB0 1-619)
